Results as given in ChEMBL document CHEMBL4346735, “Discovery and pharmacological evaluation of indole derivatives as potent and selective RORγt inverse agonist for multiple autoimmune conditions” (Bioorg Med Chem Lett, 2019).
Values after ≈ are worked out from the molar mass of the structure shown.

What was measured:
Cytochrome P450 2C9 [1] = target: T1, Cytochrome P450 2C9 (Homo sapiens, UniProt P11712); experiment: Inhibition of CYP2C9 in human liver microsomes using diclofenac as substrate preincubated for 5 mins followed by NADPH addition measured after 10 mins by LC-MS/MS analysis
T1 sequence (P11712 whole entry): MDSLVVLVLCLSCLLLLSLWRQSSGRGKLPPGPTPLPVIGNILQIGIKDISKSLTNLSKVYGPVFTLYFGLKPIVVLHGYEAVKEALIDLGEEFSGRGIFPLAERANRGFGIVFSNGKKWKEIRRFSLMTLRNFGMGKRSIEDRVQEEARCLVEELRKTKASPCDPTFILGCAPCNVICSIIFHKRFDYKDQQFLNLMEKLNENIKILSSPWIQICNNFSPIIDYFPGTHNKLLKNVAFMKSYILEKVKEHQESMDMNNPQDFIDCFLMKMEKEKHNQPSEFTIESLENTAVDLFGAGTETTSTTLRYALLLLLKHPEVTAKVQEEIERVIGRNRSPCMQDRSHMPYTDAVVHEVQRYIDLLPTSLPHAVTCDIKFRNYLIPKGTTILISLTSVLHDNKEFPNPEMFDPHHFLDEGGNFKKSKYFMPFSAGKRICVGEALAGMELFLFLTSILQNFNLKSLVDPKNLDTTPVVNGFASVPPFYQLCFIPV

Cytochrome P450 2D6 = Cytochrome P450 2D6 (Homo sapiens, UniProt P10635); experiment: Inhibition of CYP2D6 in human liver microsomes using dextromethorphan as substrate preincubated for 5 mins followed by NADPH addition measured after 10 mins by LC-MS/MS analysis
Chain of Cytochrome P450 2D6 (P10635 whole entry): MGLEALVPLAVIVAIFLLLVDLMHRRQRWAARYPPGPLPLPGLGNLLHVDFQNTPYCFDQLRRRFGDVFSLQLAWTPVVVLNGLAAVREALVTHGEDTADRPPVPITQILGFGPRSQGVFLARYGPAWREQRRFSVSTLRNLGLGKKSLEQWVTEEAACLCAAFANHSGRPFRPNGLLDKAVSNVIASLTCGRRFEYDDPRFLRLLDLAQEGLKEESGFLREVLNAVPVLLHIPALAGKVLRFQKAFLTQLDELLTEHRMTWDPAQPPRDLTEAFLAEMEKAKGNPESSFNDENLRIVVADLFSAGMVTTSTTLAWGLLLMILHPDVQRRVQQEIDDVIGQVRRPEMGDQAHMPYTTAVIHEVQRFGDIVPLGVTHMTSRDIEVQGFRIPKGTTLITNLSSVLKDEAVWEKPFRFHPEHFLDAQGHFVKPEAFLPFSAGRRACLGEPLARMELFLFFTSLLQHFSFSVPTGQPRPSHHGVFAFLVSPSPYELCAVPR

Cytochrome P450 2C19 = Cytochrome P450 2C19 (Homo sapiens, UniProt P33261); experiment: Inhibition of CYP2C19 in human liver microsomes using (S)-mephenytoin as substrate preincubated for 5 mins followed by NADPH addition measured after 40 mins by LC-MS/MS analysis
Chain of Cytochrome P450 2C19 (P33261 whole entry): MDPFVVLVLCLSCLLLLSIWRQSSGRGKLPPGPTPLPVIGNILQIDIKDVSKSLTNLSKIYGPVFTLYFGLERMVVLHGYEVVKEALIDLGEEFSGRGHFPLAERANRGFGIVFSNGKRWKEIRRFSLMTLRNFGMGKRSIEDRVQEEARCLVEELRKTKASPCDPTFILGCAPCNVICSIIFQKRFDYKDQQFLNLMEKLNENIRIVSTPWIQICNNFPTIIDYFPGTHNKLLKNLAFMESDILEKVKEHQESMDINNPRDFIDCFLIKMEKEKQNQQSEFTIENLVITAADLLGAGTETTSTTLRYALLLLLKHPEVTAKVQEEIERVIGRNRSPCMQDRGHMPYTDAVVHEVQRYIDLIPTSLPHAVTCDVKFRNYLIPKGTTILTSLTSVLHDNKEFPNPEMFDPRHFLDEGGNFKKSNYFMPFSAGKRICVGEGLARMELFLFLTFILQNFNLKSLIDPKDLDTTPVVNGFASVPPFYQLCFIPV

Cytochrome P450 1A2 = target: T2, Cytochrome P450 1A2 (Homo sapiens, UniProt P05177); experiment: Inhibition of CYP1A2 in human liver microsomes using phenacetin as substrate preincubated for 5 mins followed by NADPH addition measured after 10 mins by LC-MS/MS analysis
T2 sequence (P05177 whole entry): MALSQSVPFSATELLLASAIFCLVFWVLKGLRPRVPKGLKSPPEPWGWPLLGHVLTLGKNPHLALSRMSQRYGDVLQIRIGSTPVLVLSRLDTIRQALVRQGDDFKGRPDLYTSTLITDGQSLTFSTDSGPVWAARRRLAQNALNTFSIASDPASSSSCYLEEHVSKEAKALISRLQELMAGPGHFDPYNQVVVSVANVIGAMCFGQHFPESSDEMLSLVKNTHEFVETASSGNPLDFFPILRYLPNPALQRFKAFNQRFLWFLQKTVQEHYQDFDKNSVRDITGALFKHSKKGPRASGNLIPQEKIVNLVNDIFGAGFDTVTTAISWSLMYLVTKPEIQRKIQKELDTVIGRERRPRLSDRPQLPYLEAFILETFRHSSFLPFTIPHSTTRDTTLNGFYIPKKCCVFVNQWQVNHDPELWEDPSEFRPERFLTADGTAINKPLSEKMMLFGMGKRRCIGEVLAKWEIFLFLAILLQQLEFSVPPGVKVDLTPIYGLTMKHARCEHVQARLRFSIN

[2] = Solubility of the compound at pH 2.1; conditions: buffer
[3] = Solubility of the compound at pH 7.4; conditions: buffer
[4] = Solubility of the compound at pH 4; conditions: buffer
[5] = target: T3, Nuclear receptor ROR-gamma (Homo sapiens, UniProt P51449); experiment: Transactivation of recombinant GAL4-DBD fused RORgammat LBD (unknown origin) expressed in HEK293T cells incubated for 18 to 24 hrs by dual-Glo luciferase assay; format: cell-based
T3 sequence (P51449 whole entry): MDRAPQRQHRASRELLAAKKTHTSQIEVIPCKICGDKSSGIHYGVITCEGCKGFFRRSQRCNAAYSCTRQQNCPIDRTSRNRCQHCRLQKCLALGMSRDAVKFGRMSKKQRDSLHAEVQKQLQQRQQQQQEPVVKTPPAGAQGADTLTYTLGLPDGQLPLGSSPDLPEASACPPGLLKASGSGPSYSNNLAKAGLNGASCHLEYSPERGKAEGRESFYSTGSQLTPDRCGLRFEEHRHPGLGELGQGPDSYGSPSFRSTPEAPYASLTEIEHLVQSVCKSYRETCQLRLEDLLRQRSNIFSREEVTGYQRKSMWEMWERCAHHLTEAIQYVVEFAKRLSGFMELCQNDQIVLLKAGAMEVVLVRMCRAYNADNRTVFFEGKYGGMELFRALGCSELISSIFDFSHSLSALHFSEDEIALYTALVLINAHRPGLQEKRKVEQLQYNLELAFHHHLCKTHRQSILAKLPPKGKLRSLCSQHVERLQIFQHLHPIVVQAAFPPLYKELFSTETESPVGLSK

[6] = target: T3, Nuclear receptor ROR-gamma; experiment: Inverse agonist activity at GST-tagged RORgammat LBD (unknown origin) using fluorescein-D22 co-activator peptide as substrate incubated for 1 hr by TR-FRET assay
Cytochrome P450 2C9 [7] = target: T1, Cytochrome P450 2C9

Structure (SMILES) | IC50 (Cytochrome P450 2C9 [1]) | IC50 (Cytochrome P450 2D6) | IC50 (Cytochrome P450 2C19) | IC50 (Cytochrome P450 1A2) | solubility [2] | solubility [3] | solubility [4] | IC50 [5] | IC50 [6] | IC50 (Cytochrome P450 2C9 [7])
O=C(O)c1ccc(-n2cc(C(=O)c3c(Cl)cccc3Cl)c3cccc(F)c32)c(F)c1 | 6.4 µM | > 50 µM | – | – | – | – | – | – | – | –
O=C(O)c1ccc(-n2cc(C(=O)c3c(Cl)cccc3C(F)(F)F)c3cccc(F)c32)cc1 | 9.9 µM | > 50 µM | 23.9 µM | > 50 µM | < 1 µM | 120 µM (≈ 55.4 µg/mL) | 5 µM (≈ 2.31 µg/mL) | – | – | –
O=C(O)c1ccc(-n2cc(C(=O)c3c(Cl)cccc3Cl)c3ccccc32)c(F)c1 | 5.9 µM | – | – | – | – | – | – | 0.02 µM | 0.0011 µM | –
O=C(O)c1ccc(-n2cc(C(=O)c3c(Cl)cccc3Cl)c3cccc(F)c32)cc1 | 11.1 µM | – | – | – | < 2 µM | 584 µM (≈ 250 µg/mL) | 2 µM (≈ 0.856 µg/mL) | – | – | > 17 µM
O=C([O-])c1ccc(-n2cc(C(=O)c3c(Cl)cccc3Cl)c3cccc(F)c32)cc1.[Na+] | – | – | – | – | < 1 µM | 1450 µM | < 1 µM | – | – | –
